This is one part of the list. Single values are uncertain, as repeats are few or missing. Some results are limits rather than exact numbers.

This assay has as its system hiPSC-derived cardiomyocytes. The assay is described as follows: time to death of most cells in well after compound addition (days); higher = less cardiotoxic; extreme values may be limits of the assay. The following applies: screen: 4; 10 µM.
For `C=CC(=O)Nc1ccc2ncnc(Nc3cccc(Br)c3)c2c1`, the “time to death of most cells in well” value is greater than 7.

As for `O=C(Nc1ccc(-c2ccnc(Nc3ccc(N4CCOCC4)cc3)n2)cc1)C1CCCN1` (centres undefined), the “time to death of most cells in well” value was greater than 7.

Take `N#Cc1ccc2[nH]c(O)c(-c3ccc(CN4CCOCC4)cn3)c2c1`: the “time to death of most cells in well” value is greater than 7.

For the compound `O=C(NOC[C@H](O)CO)c1ccc(F)c(F)c1Nc1ccc(I)cc1F`, the “time to death of most cells in well” value was greater than 7.

For the compound `CCN(CC)CCNC(=O)c1c(C)[nH]c(/C=C2\C(=O)Nc3ccc(F)cc32)c1C` [Sunitinib Malate], the “time to death of most cells in well” value was 3.

Take `CC(C)(C)c1ccc(S(=O)(=O)/C=C/C#N)cc1`: the “time to death of most cells in well” value was 0.5.

As for `N#CCNC(=O)c1ccc(-c2ccnc(Nc3ccc(N4CCOCC4)cc3)n2)cc1` [Momelotinib (CYT387)], the “time to death of most cells in well” value was greater than 7.

In the case of `C=CC(=O)Nc1cccc(Oc2nc(Nc3ccc(N4CCN(C)CC4)cc3)ncc2Cl)c1`, the “time to death of most cells in well” value was found to be 4.

For `Cn1cc(/C=C2\C(=O)Nc3cccnc32)c2ccccc21`, the “time to death of most cells in well” value is greater than 7.

Turning to `COc1ccc(-c2ccc3ncc4c(c3c2)n(-c2ccc(N3CCNCC3)c(C(F)(F)F)c2)c(=O)n4C)cn1`, the “time to death of most cells in well” value came to 3.

Take `C[C@@H]1CN(CC(=O)Nc2ccc3c(c2)Cc2cccc(-c4cc(=O)cc(N5CCOCC5)o4)c2S3)C[C@H](C)O1`: the “time to death of most cells in well” value was greater than 7.

In the case of `FC(F)c1nc2ccccc2n1-c1nc(N2CCOCC2)nc(N2CCOCC2)n1`, the “time to death of most cells in well” value was greater than 7.

Turning to `CCCCCCCCCCCCCCCCCCOP(=O)([O-])OC1CC[N+](C)(C)CC1` [Perifosine (KRX-0401)], the “time to death of most cells in well” value is greater than 7.

For the compound `COc1cc2nccc(Oc3ccc(NC(=O)C4(C(=O)Nc5ccc(F)cc5)CC4)cc3)c2cc1OC` [Cabozantinib malate (XL184)], the “time to death of most cells in well” value was greater than 7.
